# Laboratory results taken from the supplement of paper PMC10037445.
# Several values for one entry are separate records, joined by “and”; a condition that tells them apart may be missing. Identical values can stand only once. Whole data set: some 2,900 compounds, median “NF-kB SEAP reporter activity, fold change vs agonist alone” near 0.99, cut for the highest 2% near 2.6. The list shows a part of the results.
# Columns and labels:
# RAW-Dual [1] = assay: NF-kB SEAP reporter activity, fold change vs agonist alone; higher = enhanced NF-kB activity; details: cytotoxicity flag (confluency mask): not cytotoxic
# Procedure, shortened: (§1)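 RAW-Dual macrophages were seeded in DMEM at 50,000 cells/well in 384-well plates, given 50 nL of library stock by pin tool, and given a PRR agonist 1 h later. Plates were held at 37 °C, 5% CO2 for 20 hours, after which supernatant was read for IRF by QuantiLuc luminescence and for NF-κB by QuantiBlue absorbance at 620 nm. Reporter activity is expressed as fold change over wells that received agonist alone. A well was called cytotoxic when IncuCyte confluency fell below 70% of agonist controls in both mask sets.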
# RAW-Dual [2] = assay: NF-kB SEAP reporter activity, fold change vs agonist alone; cytotoxicity flag (confluency mask): not cytotoxic; higher = enhanced NF-kB activity
# Procedure, shortened: as §1
# [3] = agonist: ODN 1826 (TLR9) 0.5 ug/mL
# [4] = agonist: Pam2CSK4 (TLR2/6) 0.1 ug/mL
# [5] = agonist: Pam3CSK4 (TLR2/1) 0.1 ug/mL
# [6] = library stock concentration (final ~1000-fold dilution): 10 mM, agonist: Imiquimod (TLR7) […]
# [7] = library stock concentration (final ~1000-fold dilution): 10 mM, agonist: MPLA (TLR4) […]
smiles,measurement,setting,value
CCOC(=O)C1=CCCCC1S(=O)(=O)Nc1ccc(F)cc1Cl (stereo not given),NF-kB SEAP reporter activity,"RAW-Dual [1]; library stock concentration (final ~1000-fold dilution): .1 mM, agonist: Imiquimod (TLR7) […]",1.2
same,NF-kB SEAP reporter activity,"RAW-Dual [1]; library stock concentration (final ~1000-fold dilution): .1 mM, agonist: MPLA (TLR4) […]",0.252
CCOC(=O)C1=CCCCC1S(=O)(=O)Nc1ccc(F)cc1Cl (stereo not given) (library stock concentration (final ~1000-fold dilution): .1 mM),NF-kB SEAP reporter activity,RAW-Dual [2]; agonist: LPS (TLR4) 0.1 ug/mL,0.288
same,NF-kB SEAP reporter activity,RAW-Dual [2]; [3],1.09
same,NF-kB SEAP reporter activity,RAW-Dual [2]; [4],1.36
same,NF-kB SEAP reporter activity,RAW-Dual [2]; [5],1.39
Nc1ncnc2[nH]nc(Nc3ccc(F)cc3)c12,NF-kB SEAP reporter activity,RAW-Dual [1]; [6],1.13
same,NF-kB SEAP reporter activity,RAW-Dual [1]; [7],2.6
Nc1ncnc2[nH]nc(Nc3ccc(F)cc3)c12 (library stock concentration (final ~1000-fold dilution): 10 mM),NF-kB SEAP reporter activity,RAW-Dual [2]; agonist: LPS (TLR4) 0.1 ug/mL,6.5
same,NF-kB SEAP reporter activity,RAW-Dual [2]; [3],1.43
same,NF-kB SEAP reporter activity,RAW-Dual [2]; [4],0.872
same,NF-kB SEAP reporter activity,RAW-Dual [2]; [5],1.26
CCCCNc1ncc(C(=O)NCc2ccc(-n3ccnc3)cc2)c(NC2CCC(O)CC2)n1 (stereo not given) (library stock concentration (final ~1000-fold dilution): 10 mM),NF-kB SEAP reporter activity,RAW-Dual [2]; agonist: LPS (TLR4) 0.1 ug/mL,0.621
same,NF-kB SEAP reporter activity,RAW-Dual [2]; [3],0.381
same,NF-kB SEAP reporter activity,RAW-Dual [2]; [4],0.331
same,NF-kB SEAP reporter activity,RAW-Dual [2]; [5],0.4
CCCCNc1ncc(C(=O)NCc2ccc(-n3ccnc3)cc2)c(NC2CCC(O)CC2)n1 (stereo not given),NF-kB SEAP reporter activity,RAW-Dual [1]; [6],1.01
same,NF-kB SEAP reporter activity,RAW-Dual [1]; [7],1.59
CC(C)NCC(O)COc1ccc(CC(N)=O)cc1 (stereo not given) (library stock concentration (final ~1000-fold dilution): 10 mM),NF-kB SEAP reporter activity,RAW-Dual [2]; agonist: LPS (TLR4) 0.1 ug/mL,1.29
same,NF-kB SEAP reporter activity,RAW-Dual [2]; [3],0.938
same,NF-kB SEAP reporter activity,RAW-Dual [2]; [4],1.45
same,NF-kB SEAP reporter activity,RAW-Dual [2]; [5],0.944
CC(C)NCC(O)COc1ccc(CC(N)=O)cc1 (stereo not given),NF-kB SEAP reporter activity,RAW-Dual [1]; [7],1.04
NC(CC(=O)N1CCn2c(nnc2C(F)(F)F)C1)Cc1cc(F)c(F)cc1F (stereo not given),NF-kB SEAP reporter activity,RAW-Dual [1]; [6],0.912
NC(CC(=O)N1CCn2c(nnc2C(F)(F)F)C1)Cc1cc(F)c(F)cc1F (stereo not given) (library stock concentration (final ~1000-fold dilution): 10 mM),NF-kB SEAP reporter activity,RAW-Dual [2]; agonist: LPS (TLR4) 0.1 ug/mL,0.947 and 0.954
same,NF-kB SEAP reporter activity,RAW-Dual [2]; [3],0.949 and 0.994
same,NF-kB SEAP reporter activity,RAW-Dual [2]; [4],1.15 and 0.952
same,NF-kB SEAP reporter activity,RAW-Dual [2]; [5],1.05 and 1.03
O=C(/C=C/c1ccc(O)c(O)c1)O[C@@H]1C[C@@](O)(C(=O)O)C[C@@H](O)[C@@H]1O (library stock concentration (final ~1000-fold dilution): 10 mM),NF-kB SEAP reporter activity,RAW-Dual [2]; agonist: LPS (TLR4) 0.1 ug/mL,1.09
same,NF-kB SEAP reporter activity,RAW-Dual [2]; [3],1.1
same,NF-kB SEAP reporter activity,RAW-Dual [2]; [4],1.21
same,NF-kB SEAP reporter activity,RAW-Dual [2]; [5],1.03
O=C(/C=C/c1ccc(O)c(O)c1)O[C@@H]1C[C@@](O)(C(=O)O)C[C@@H](O)[C@@H]1O,NF-kB SEAP reporter activity,RAW-Dual [1]; [6],0.869
same,NF-kB SEAP reporter activity,RAW-Dual [1]; [7],0.996
CCCCCCCCCCCCCCOC1C(OC)OC(CN)C(O)C1OCCCCCCCCCCCCCC (stereo not given),NF-kB SEAP reporter activity,"RAW-Dual [1]; library stock concentration (final ~1000-fold dilution): 1 mM, agonist: Imiquimod (TLR7) […]",0.533
same,NF-kB SEAP reporter activity,"RAW-Dual [1]; library stock concentration (final ~1000-fold dilution): 1 mM, agonist: MPLA (TLR4) […]",1.05
CCCCCCCCCCCCCCOC1C(OC)OC(CN)C(O)C1OCCCCCCCCCCCCCC (stereo not given) (library stock concentration (final ~1000-fold dilution): 1 mM),NF-kB SEAP reporter activity,RAW-Dual [2]; agonist: LPS (TLR4) 0.1 ug/mL,1.03
same,NF-kB SEAP reporter activity,RAW-Dual [2]; [3],1.01
same,NF-kB SEAP reporter activity,RAW-Dual [2]; [4],1.1
same,NF-kB SEAP reporter activity,RAW-Dual [2]; [5],1.28
Cn1c(=O)c2c(ncn2CC2OCCO2)n(C)c1=O,NF-kB SEAP reporter activity,RAW-Dual [1]; [6],0.892
same,NF-kB SEAP reporter activity,RAW-Dual [1]; [7],1.08
Cn1c(=O)c2c(ncn2CC2OCCO2)n(C)c1=O (library stock concentration (final ~1000-fold dilution): 10 mM),NF-kB SEAP reporter activity,RAW-Dual [2]; agonist: LPS (TLR4) 0.1 ug/mL,1.05
same,NF-kB SEAP reporter activity,RAW-Dual [2]; [3],0.977
same,NF-kB SEAP reporter activity,RAW-Dual [2]; [4],1.08
same,NF-kB SEAP reporter activity,RAW-Dual [2]; [5],1.07
CN(C)C(=O)CCSC(SCCC(=O)O)c1cccc(C=Cc2ccc3ccc(Cl)cc3n2)c1 (stereo not given) (library stock concentration (final ~1000-fold dilution): 10 mM),NF-kB SEAP reporter activity,RAW-Dual [2]; agonist: LPS (TLR4) 0.1 ug/mL,1.5
same,NF-kB SEAP reporter activity,RAW-Dual [2]; [3],1.12
same,NF-kB SEAP reporter activity,RAW-Dual [2]; [4],0.936
same,NF-kB SEAP reporter activity,RAW-Dual [2]; [5],0.945
CN(C)C(=O)CCSC(SCCC(=O)O)c1cccc(C=Cc2ccc3ccc(Cl)cc3n2)c1 (stereo not given),NF-kB SEAP reporter activity,RAW-Dual [1]; [6],0.973
same,NF-kB SEAP reporter activity,RAW-Dual [1]; [7],1.05
O=C(OCC1OC(OC(=O)c2cc(O)c(O)c(OC(=O)c3cc(O)c(O)c(O)c3)c2)C(OC(=O)c2cc(O)c(O)c(OC(=O)c3cc(O)c(O)c(O)c3)c2)C(OC(=O)c2cc(O)c(O)c(OC(=O)c3cc(O)c(O)c(O)c3)c2)C1OC(=O)c1cc(O)c(O)c(OC(=O)c2cc(O)c(O)c(O)c2)c1)c1cc(O)c(O)c(OC(=O)c2cc(O)c(O)c(O)c2)c1 (stereo not given) (library stock concentration (final ~1000-fold dilution): 10 mM),NF-kB SEAP reporter activity,RAW-Dual [2]; agonist: LPS (TLR4) 0.1 ug/mL,1.25
same,NF-kB SEAP reporter activity,RAW-Dual [2]; [3],0.116
same,NF-kB SEAP reporter activity,RAW-Dual [2]; [4],1.04
same,NF-kB SEAP reporter activity,RAW-Dual [2]; [5],0.185
O=C(OCC1OC(OC(=O)c2cc(O)c(O)c(OC(=O)c3cc(O)c(O)c(O)c3)c2)C(OC(=O)c2cc(O)c(O)c(OC(=O)c3cc(O)c(O)c(O)c3)c2)C(OC(=O)c2cc(O)c(O)c(OC(=O)c3cc(O)c(O)c(O)c3)c2)C1OC(=O)c1cc(O)c(O)c(OC(=O)c2cc(O)c(O)c(O)c2)c1)c1cc(O)c(O)c(OC(=O)c2cc(O)c(O)c(O)c2)c1 (stereo not given),NF-kB SEAP reporter activity,RAW-Dual [1]; [6],0.144
same,NF-kB SEAP reporter activity,RAW-Dual [1]; [7],0.319
COc1ccc(Oc2cc(C)c(-c3csc(NC(=O)c4ccncc4)n3)c(C)c2)cc1,NF-kB SEAP reporter activity,RAW-Dual [1]; [6],1.09
same,NF-kB SEAP reporter activity,RAW-Dual [1]; [7],1.68
COc1ccc(Oc2cc(C)c(-c3csc(NC(=O)c4ccncc4)n3)c(C)c2)cc1 (library stock concentration (final ~1000-fold dilution): 10 mM),NF-kB SEAP reporter activity,RAW-Dual [2]; agonist: LPS (TLR4) 0.1 ug/mL,1.98
same,NF-kB SEAP reporter activity,RAW-Dual [2]; [3],1.37
same,NF-kB SEAP reporter activity,RAW-Dual [2]; [4],0.395
same,NF-kB SEAP reporter activity,RAW-Dual [2]; [5],0.431
COCC(=O)NC/C=C/c1ccc2ncnc(Nc3ccc(Oc4ccc(C)nc4)c(C)c3)c2c1,NF-kB SEAP reporter activity,RAW-Dual [1]; [6],0.843
same,NF-kB SEAP reporter activity,RAW-Dual [1]; [7],1.08
COCC(=O)NC/C=C/c1ccc2ncnc(Nc3ccc(Oc4ccc(C)nc4)c(C)c3)c2c1 (library stock concentration (final ~1000-fold dilution): 10 mM),NF-kB SEAP reporter activity,RAW-Dual [2]; agonist: LPS (TLR4) 0.1 ug/mL,1.22
same,NF-kB SEAP reporter activity,RAW-Dual [2]; [3],0.832
same,NF-kB SEAP reporter activity,RAW-Dual [2]; [4],0.987
same,NF-kB SEAP reporter activity,RAW-Dual [2]; [5],1.15
